Our source for the Kd values is paper PMC3510490 (Nucleic Acids Research, 2012).

The target of this test is T1, (H3–H4)2 tetramer (Xenopus laevis, UniProt P84233; P62799, H4 E63C, Alexa 488 maleimide on C63 (H4 E63C)).
T1 construct: Histone H3, Xenopus laevis; also called H3–H4 tetramer; H3–H4 complex; copies: 2 + 2
Briefly: other fluorescence titration; Arp constructs or sub-complex titrated (1 to 5000 nM) into fluorescently labelled histone complexes or nucleosomes kept at 0.5-1 nM, 40 µl in microplates; 20 mM Tris pH 7.5, 150 mM KCl, 5% glycerol, 1 mM TCEP, 0.01% CHAPS, 0.01% octylglucoside; room temperature, 20-30 min; apparent Kd and Hill coefficient from non-linear fit; quadruplicates. Conditions: both partners purified.

B1: Homo sapiens Arp8 (Δ[…]) (domain or fragment)
chain: not shown
notes: Actin-related protein 8 (Arp8), INO80 complex subunit, human, […], amplified from human macrophage cDNA; Tag cut off with PreScission protease; also called Hs Arp8 (Δ[…]); human Arp8 (Δ[…]); source: E. coli BL21(DE3), purified (Ni-NTA, Q sepharose, tag cleavage, second Ni-NTA, Superdex-200); not shown: His8, N-terminal, cleaved
Consider B1, for which the Kd stood at 65.1 nM.
